# Assay results taken from the supplement of paper PMC4466236.
# In all, about 33,000 sequences were measured (“E-score (dimensionless, -0.5 to 0.5)”: median about -0.058, highest 2% from about 0.35 on). The list shows a part of the results.
# System: MvaT
# Experiment: PBM 8-mer E-score (mean of HK and ME arrays) (E-score (dimensionless, -0.5 to 0.5)); higher = stronger relative binding preference; most listed sequences are background and not binding sites
# Procedure, shortened: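 Full-length P. aeruginosa MvaT carrying an N-terminal glutathione S-transferase tag was tested by protein binding microarray following a previously described protocol. Two universal double-stranded 60-mer arrays, ME and HK, were used, each with a constant 25-mer primer region and a variable 35-mer region covering all 8-mers. The rank-based E-score is the mean of the two arrays, parsed with a custom script. Its range runs from -0.5 to 0.5 for each 8-mer.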
row,Sequence,PBM 8-mer E-score
1,ATCTTATG,0.0518
2,CGGGAGGA,-0.234
3,AGGGCAGG,-0.265
4,AGAATACA,0.0781
5,GATGGCGA,0.0338
6,CCGATTAC,-0.0227
7,AATTGAGA,0.0559
8,GAGGCCAA,-0.149
9,CAGGACAG,-0.206
10,ATCAAATC,-0.0337
11,AAGAAACA,0.16
12,TACCACTA,0.0507
13,GGGCACCC,-0.277
14,ACCAGTAT,0.036
15,CCACCCCA,-0.226
16,CGGACGCA,-0.201
17,ATATTACG,0.299
18,CGCCTGAG,-0.229
19,GAAATAAA,0.405
20,CGACCGCG,-0.249
21,ACACACCT,-0.0695
22,AATGGTAA,0.226
23,CAAACTGA,0.0425
24,CATAAGTA,0.315
25,ACTATGAT,0.204

row,Sequence,PBM 8-mer E-score
1,ACATTAGC,0.101
2,CATTAGAA,-0.0258
3,ACTTACTC,0.0724
4,ATGGGACA,-0.127
5,GCACGGCC,-0.199
6,ACCACGAG,-0.16
7,AGCTTGTC,-0.101
8,AATGATCG,-0.0474
9,ATTTATAG,0.342
10,CGCCTCGC,-0.193
11,CGCCCGTA,-0.132
12,AATTAAGA,0.277
13,GATCTTCA,-0.141
14,GCCTTTTA,0.14
15,ACTAAAAA,0.193
16,CAATGACA,-0.0266
17,CTACAGCA,-0.125
18,GAGACCAA,-0.0758
19,ACTAGTAC,0.114
20,CTCGAAAG,-0.148
21,ACTCCCAA,0.0716
22,CGTTCTAG,-0.00357
23,CTAGACAG,-0.157
24,CCCTAATA,0.00517
25,GCTGTTGA,-0.137

row,Sequence,PBM 8-mer E-score
1,GCATTCAA,0.15
2,GAGACATA,0.242
3,CGATCACA,-0.038
4,ACGATGAG,-0.215
5,GTGTGCAA,-0.034
6,AGAACGTC,-0.0779
7,GATTCTCA,-0.0981
8,AACGAGAT,0.0252
9,AGGCCCTC,-0.326
10,CCAAGTAC,0.055
11,AGGCATCG,-0.134
12,ACCTGCGC,-0.117
13,AGGGACGC,-0.271
14,GAACGTAA,0.0182
15,CCCTAACA,0.00516
16,AAGCTGTC,-0.0165
17,GAGTCTGC,-0.354
18,GTACTGGA,0.0295
19,ACGTTGGA,-0.144
20,AGTCCCGC,-0.186
21,CAGCCTTC,-0.321
22,AACAGATT,0.0949
23,CGGGTTTC,-0.253
24,AAGCCGTG,-0.156
25,AGGCCTAC,-0.133

row,Sequence,PBM 8-mer E-score
1,ATATCCTG,0.161
2,CGGTTAAC,0.012
3,CGGTATAA,0.296
4,TCCCAGCA,0.0141
5,CATTGTGG,-0.0595
6,ATTCATTA,0.219
7,CATCGTTA,0.113
8,GACCTCAC,-0.303
9,CTGTTGCA,-0.121
10,AGACTGGC,-0.0976
11,GCTATCTA,-0.193
12,ACCTCTTC,-0.242
13,AAAACGCC,-0.197
14,GAGGGCCA,-0.326
15,CGTTAAGC,-0.0162
16,GGCTTACC,-0.264
17,AAAACACT,0.0994
18,CTTCACTC,-0.239
19,CACTGAGC,-0.183
20,GTGAGAAC,0.0401
21,ATTAATTC,0.415
22,AGGGATCA,-0.154
23,AGCAACCC,-0.0849
24,CCCTCAAA,-0.123
25,GTAAAGAC,-0.0319

row,Sequence,PBM 8-mer E-score
1,AACGGGGT,-0.142
2,AAAGGACA,0.0226
3,CGGAAACC,-0.267
4,ACAAATGC,0.0069
5,AGAAAACA,0.182
6,TAGCCGCA,-0.0208
7,GTCATGGA,-0.101
8,AGACGTCG,-0.11
9,GACGGTAA,-0.0106
10,CACCTATA,0.122
11,ATCGGCCG,-0.185
12,CTCCAATA,0.202
13,CAATTAGG,0.106
14,ACAAAGGA,-0.104
15,ATGATTAA,0.307
16,TCACACGA,-0.168
17,ACAGACTG,-0.177
18,ACATTCGT,-0.0828
19,AGTATCGG,0.0692
20,GAAGCGAA,-0.0527
21,TACACTGA,0.137
22,GCCCTGAC,-0.243
23,GAGTACTA,0.074
24,GAAATTTC,0.317
25,AGGACCGC,-0.29

row,Sequence,PBM 8-mer E-score
1,GGGGGTAC,-0.292
2,AGCAAAGA,-0.0173
3,AGCTATAG,0.0139
4,CGACTACA,0.0423
5,AATTTCTC,0.125
6,TCCACCAA,0.0584
7,ATGGACTG,-0.179
8,CTGAAAGC,-0.148
9,CAGCTCGC,-0.107
10,AGTTGAAT,0.103
11,AAAGAGCT,-0.115
12,GCAAGCGA,-0.21
13,CGACAACC,-0.075
14,AAGGGATA,-0.0207
15,AACCAAGA,0.0134
16,GCCCAAAA,0.0513
17,ATTTTTTG,0.116
18,GGGTAGGA,-0.2
19,CTAAAGGA,-0.0979
20,CCGAACGG,-0.229
21,CTCCACAA,-0.045
22,ATAAGTCG,0.183
23,AACCCTCC,-0.222
24,AGTGGCAA,-0.0346
25,CACGCTCA,-0.177

row,Sequence,PBM 8-mer E-score
1,AACGTTGG,-0.094
2,AGGAGACT,-0.214
3,GCGGATAC,-0.123
4,ATTGGTCC,-0.12
5,CACCAAGA,-0.0628
6,ATGGCGGA,-0.168
7,CGTGCGCC,-0.27
8,ATGTGCGA,0.0665
9,GTAGGCAA,-0.171
10,AGAGGCTA,-0.159
11,GTTCCTCA,-0.108
12,AGCAATAG,0.125
13,AACATACA,0.36
14,CGGCTTAA,0.0662
15,ACCGTGCG,-0.0363
16,CCCCACAG,-0.247
17,GATCTACC,-0.179
18,ACGTCGTG,-0.174
19,CATTCTAC,-0.00107
20,AACGACTT,0.133
21,CTTAGAAG,0.0923
22,AGCGTATG,-0.0614
23,GACTCCTA,-0.164
24,AGCATCGC,-0.152
25,AAACGTTG,0.0321

row,Sequence,PBM 8-mer E-score
1,CCCGGGTA,-0.242
2,CAGTCATG,-0.105
3,CAATACTA,0.172
4,AACCCTGC,-0.0713
5,ACAATCCT,0.0627
6,CACATATG,0.196
7,ATGTGTCA,0.135
8,CTGGCTAC,-0.112
9,CGGGCTGC,-0.217
10,GATTTATA,0.398
11,AATAATCC,0.26
12,GTACCTAA,0.00303
13,ACCCGCCC,0.0308
14,AACTCTGG,0.05
15,CGTAGCTA,-0.101
16,ATTGCTGG,0.05
17,ACGTCTTG,-0.173
18,TATCCACA,0.132
19,CTATGGAC,-0.203
20,AGTTTCCA,0.0701
21,ATCGCTTA,0.0374
22,GACGGATA,-0.0625
23,AGATTCGG,-0.199
24,AGCACATC,-0.127
25,CGGGGGAG,-0.241

row,Sequence,PBM 8-mer E-score
1,TGCACTAA,0.122
2,ACTATTGA,0.254
3,GAGTATGA,0.041
4,AGTGGATA,0.0913
5,TCCGATAA,0.0217
6,AGACGGGG,-0.261
7,GGCGAAGA,-0.123
8,CTGAATAA,0.226
9,TAATTATA,0.462
10,CACGGTAG,-0.114
11,ACCACTTG,0.0527
12,CAAGGATA,0.0575
13,CCAGCTTC,-0.327
14,CGCACTAC,0.0544
15,CCCCTACG,-0.245
16,CCCAAAAC,-0.178
17,AGCCCCTC,-0.345
18,CATTATGA,0.214
19,CACTAGTG,0.0114
